According to the RNAGym collection of RNA variant scans (doi:10.1073/pnas.2313332121):
Variants at the floor of the assay are shown more often than the library holds them.

B1: TPR 5TU (parent)
chain: GGAUCUUCUCGAUCUAACAAAAAAGACAAAUCUGCCACAAAGCUUGAGAGCAUCUUCGGAUGCAGAGGCGGCAGCCUUCGGUGGCGCGAUAGCGCCAACGUUCUCAACUAUGACACGCAAAACGCGUGCUCCGUUGAAUGGAGUUUAUCAUG

Variants of: B1
Assay: polymerase ribozyme fitness, log enrichment relative to wild type (log ratio); higher = more active; in vitro selection for triplet polymerase activity
Summary of the method: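 Mutant libraries of each subunit of a heterodimeric triplet polymerase ribozyme were built by PCR and transcribed. Each library went through one round of in vitro selection in triplicate: annealing with biotinylated primer, partner subunit and triplets, frozen incubation at −7 °C, gel excision of extended constructs, streptavidin-bead capture and RT-PCR. Input and output libraries were Illumina-sequenced; only genotypes with ≥10 input reads and ≥1 read per output were kept. Fitness is log2(genotype enrichment/wild-type enrichment), using inverse-variance-weighted replicate averages.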
In the case of A89U G143U, the “polymerase ribozyme fitness (log ratio)” value is reported as -2.38.
With U90A G92C A142G the “polymerase ribozyme fitness (log ratio)” value was no more than -4.2.
For G84U C87G C118U A119U G126A, the “polymerase ribozyme fitness (log ratio)” value was no more than -4.2.
For G88U A91G, the “polymerase ribozyme fitness (log ratio)” value was no more than -4.2.
With G84U A106C A107C G124A U151A the “polymerase ribozyme fitness (log ratio)” value was no more than -4.2.
With C85G G94U the “polymerase ribozyme fitness (log ratio)” value was -0.835.
In the case of G84U U90A C108A, the “polymerase ribozyme fitness (log ratio)” value is reported as no more than -4.2.
In the case of C85A A91G, the “polymerase ribozyme fitness (log ratio)” value is reported as -3.36.
In the case of G84A G143U, the “polymerase ribozyme fitness (log ratio)” value is reported as -2.51.
For C85U C116U, the “polymerase ribozyme fitness (log ratio)” value was -0.233.
In the case of G88A G152A, the “polymerase ribozyme fitness (log ratio)” value is reported as no more than -4.2.
For G86A A110G U145A C149G, the “polymerase ribozyme fitness (log ratio)” value was no more than -4.2.
In the case of C85G G124A G133A, the “polymerase ribozyme fitness (log ratio)” value is reported as no more than -4.2.
For G84C C123G U146G, the “polymerase ribozyme fitness (log ratio)” value was -2.7.
In the case of G86U U101G U111A, the “polymerase ribozyme fitness (log ratio)” value is reported as no more than -4.2.
In the case of G92A A113G G128C G141A, the “polymerase ribozyme fitness (log ratio)” value is reported as no more than -4.2.
In the case of A91U G143U, the “polymerase ribozyme fitness (log ratio)” value is reported as no more than -4.2.
In the case of G88A A110G, the “polymerase ribozyme fitness (log ratio)” value is reported as no more than -4.2.
In the case of G86U A89U A113U C131G, the “polymerase ribozyme fitness (log ratio)” value is reported as no more than -4.2.
In the case of G92A C149A, the “polymerase ribozyme fitness (log ratio)” value is reported as no more than -4.2.
With G88A C118U the “polymerase ribozyme fitness (log ratio)” value was no more than -4.2.
With G92A U144C A147U the “polymerase ribozyme fitness (log ratio)” value was -3.46.
With A91C A97G U109C A142C the “polymerase ribozyme fitness (log ratio)” value was no more than -4.2.
In the case of A91U C95G, the “polymerase ribozyme fitness (log ratio)” value is reported as no more than -4.2.
In the case of A89C G140C, the “polymerase ribozyme fitness (log ratio)” value is reported as no more than -4.2.
For G84U G126U G133U, the “polymerase ribozyme fitness (log ratio)” value was no more than -4.2.
For C87A G140C G141A, the “polymerase ribozyme fitness (log ratio)” value was no more than -4.2.
With C85A A147G the “polymerase ribozyme fitness (log ratio)” value was -0.743.
For A89G U146G C149G, the “polymerase ribozyme fitness (log ratio)” value was -4.1.
In the case of C85G A121G C132U, the “polymerase ribozyme fitness (log ratio)” value is reported as -2.88.
In the case of A89C U130A, the “polymerase ribozyme fitness (log ratio)” value is reported as -3.07.
For C85G C87U A110G, the “polymerase ribozyme fitness (log ratio)” value was no more than -4.2.
With A91G U148A the “polymerase ribozyme fitness (log ratio)” value was no more than -4.2.
In the case of C87U A113G G117A A138C, the “polymerase ribozyme fitness (log ratio)” value is reported as no more than -4.2.
With C85U C125U the “polymerase ribozyme fitness (log ratio)” value was -0.156.
With G84A G136C the “polymerase ribozyme fitness (log ratio)” value was -3.25.
In the case of G84A G88U C108U C123U, the “polymerase ribozyme fitness (log ratio)” value is reported as no more than -4.2.
In the case of C87A A106C, the “polymerase ribozyme fitness (log ratio)” value is reported as no more than -4.2.
In the case of C87U A120G A121C A147U U148C, the “polymerase ribozyme fitness (log ratio)” value is reported as -2.38.
With G92C A142U the “polymerase ribozyme fitness (log ratio)” value was -2.07.
With C85U C87U C108U C114A the “polymerase ribozyme fitness (log ratio)” value was no more than -4.2.
In the case of G86C A107G U111C A115U, the “polymerase ribozyme fitness (log ratio)” value is reported as no more than -4.2.
For C87G G92A A107C, the “polymerase ribozyme fitness (log ratio)” value was no more than -4.2.
For C85A C125A A137G, the “polymerase ribozyme fitness (log ratio)” value was -2.28.
For C85A G124U, the “polymerase ribozyme fitness (log ratio)” value was -1.9.
With C85A A106G the “polymerase ribozyme fitness (log ratio)” value was -2.01.
For C85U C125G G136A, the “polymerase ribozyme fitness (log ratio)” value was -0.203.
For C85U G128U C149A, the “polymerase ribozyme fitness (log ratio)” value was no more than -4.2.
In the case of G84U C99G A147C, the “polymerase ribozyme fitness (log ratio)” value is reported as no more than -4.2.
In the case of A91U G136U U144C, the “polymerase ribozyme fitness (log ratio)” value is reported as no more than -4.2.
In the case of G84C C85A G92U C96A A97C C105U, the “polymerase ribozyme fitness (log ratio)” value is reported as -2.61.
In the case of C85A C149U, the “polymerase ribozyme fitness (log ratio)” value is reported as -1.59.
For G92U C95A A115G A147C, the “polymerase ribozyme fitness (log ratio)” value was no more than -4.2.
For A91C C108U A113C C118G U130C, the “polymerase ribozyme fitness (log ratio)” value was no more than -4.2.
For C85U A106C A150C, the “polymerase ribozyme fitness (log ratio)” value was no more than -4.2.
In the case of G84C C85A A98G C103U G140U, the “polymerase ribozyme fitness (log ratio)” value is reported as no more than -4.2.
With G86A G143A the “polymerase ribozyme fitness (log ratio)” value was -1.25.
In the case of G84U C93G, the “polymerase ribozyme fitness (log ratio)” value is reported as no more than -4.2.
For G92U A137G U145C, the “polymerase ribozyme fitness (log ratio)” value was -1.11.
In the case of C87A G140C, the “polymerase ribozyme fitness (log ratio)” value is reported as no more than -4.2.
With C85U C87U U144G the “polymerase ribozyme fitness (log ratio)” value was 0.338.
For G84U U130A U145C, the “polymerase ribozyme fitness (log ratio)” value was -4.13.
For A89C A97U U101G A110G U134G G141A, the “polymerase ribozyme fitness (log ratio)” value was no more than -4.2.
With A91U A121U the “polymerase ribozyme fitness (log ratio)” value was no more than -4.2.
For G86C A97G U135C G136A U146C, the “polymerase ribozyme fitness (log ratio)” value was no more than -4.2.
For G88C A137C, the “polymerase ribozyme fitness (log ratio)” value was no more than -4.2.
With A91U A106C C125G G141A U151G the “polymerase ribozyme fitness (log ratio)” value was no more than -4.2.
With C85U G126U U139A U144C the “polymerase ribozyme fitness (log ratio)” value was -3.59.
In the case of C85G A121C G141U U151C, the “polymerase ribozyme fitness (log ratio)” value is reported as no more than -4.2.
With G84U G94A C96A the “polymerase ribozyme fitness (log ratio)” value was -3.87.
With A91G A120G C132U G141C the “polymerase ribozyme fitness (log ratio)” value was no more than -4.2.
For G92C A98G U102A A107G, the “polymerase ribozyme fitness (log ratio)” value was no more than -4.2.
For A91G U144G, the “polymerase ribozyme fitness (log ratio)” value was -2.02.
For G86U G140U, the “polymerase ribozyme fitness (log ratio)” value was -3.83.
With C85A U145G the “polymerase ribozyme fitness (log ratio)” value was -1.06.
For G86A A113G C118G G136U A150U U151C, the “polymerase ribozyme fitness (log ratio)” value was no more than -4.2.
With G84A U109G the “polymerase ribozyme fitness (log ratio)” value was -1.95.
For C87U U151G, the “polymerase ribozyme fitness (log ratio)” value was -3.96.
In the case of G88A G94A C99G C103G U104A A107G, the “polymerase ribozyme fitness (log ratio)” value is reported as no more than -4.2.
In the case of G92A C125A U127A U148G, the “polymerase ribozyme fitness (log ratio)” value is reported as no more than -4.2.
With G88A A113G U127G G143C the “polymerase ribozyme fitness (log ratio)” value was no more than -4.2.
With U90C G143A the “polymerase ribozyme fitness (log ratio)” value was no more than -4.2.
With C87G C149U the “polymerase ribozyme fitness (log ratio)” value was no more than -4.2.
